From the supplement of paper PMC10338343
± gives the standard deviation. The full ranking holds about 5,500 sequences; the median of “pre-steady-state target cleavage rate” is about 0.1, and the highest 2% start at about 0.64. The entries are a selection whose mix differs from that of the whole data set.

system: MIWI (PIWIL1) piRISC loaded with piRNA #2 (30 nt); assay: pre-steady-state target cleavage rate (min^-1); MIWI and MILI are mouse PIWI proteins and EfPiwi is from a freshwater sponge; tags in brackets are library labels; higher = faster piRNA-guided slicing of the target; conditions: guide: piRNA #2 5'p-UUAGGUAACCCAGUAGAUCCAGAGGAAUUC; auxiliary factor: 500 nM mouse GTSF1
Experimental: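 Cleave-'n-Seq: a library of target RNAs (target site embedded in constant flanks, ACAGCATTCCGCGTTAGTGATATCCG... 5' flank; DNA-blocked outside the site) at 0.1 nM was incubated with 1 nM active mouse MILI or MIWI piRISC (synthetic 5'-monophosphorylated piRNA guide) with or without 500 nM mouse GTSF1 at 33 °C for 1 min to 16 h. Uncleaved targets were sequenced and normalised to non-target controls, and the pooled three trials were fitted to a burst-and-steady-state model to give the pre-steady-state cleavage rate (min^-1; k3 is constrained to at most 1e-4). Sequence is the target site only; target names encode pairing extent (gX:gY) and contiguous / 1-mismatch / 2-mismatch / bulge geometry. Fits with R² ≤ 0 are excluded.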

Row | Sequence | pre-steady-state target cleavage rate
1 | CUUAACCUCUGGAUCUACUGGCAUACCUAA | 0.00495 ± 0.0029
2 | CUUAACCACUGGAUCUACUGGGAUACCUAA | 0.276 ± 0.026
3 | CUUUUCCUCUGGAUCUAGUGGGUUACGUAA | 0.228 ± 0.022
4 | CUUAACCUCUGGAUCUACUGGGUUGCCUAA | 0.197 ± 0.023
5 | CUUAAGCUCUGGAUCUACACCGUUACCUAA | 0.0395 ± 0.0086
6 | CUUUACCUCUGGAUCUACAGGGUUACCUAA | 0.182 ± 0.018
7 | CUUAAGCUCUCGAUGUACUGGGUUACCUAA | 0.509 ± 0.036
8 | CUAUUCCUCUGGUAGUACUGGGUUACCUAA | 0.232 ± 0.036
9 | CUUAACCUCUGGAACUACAGGGUUACCUAA | 0.254 ± 0.019
10 | CAAUUCCUCUGGAUCUAGUGGGUUUCCUAA | 0.133 ± 0.026
11 | CUUAUCGAGUGGAUCUACUGGGUUACCUAA | 0.228 ± 0.022
12 | GAAAUCCUCUGGAUCUACUGGGUUACCUAA | 0.249 ± 0.058
13 | CUUUUCCUCAGGAUCUAGUGGGUUACCUAA | 0.16 ± 0.025
14 | CAAUACCUCUGGAUCUACUGGGUUUCCUAA | 0.295 ± 0.047
15 | CAAUUCGUCUGGAUCAACUGGGUUACCUAA | 0.239 ± 0.041
16 | CUUAAGGUCUGGAUCUACUGGGCUACCUAA | 0.0794 ± 0.018
17 | CUUAUCCUCUGGAUCAACUGGGUUACCUAA | 0.342 ± 0.039
18 | CUUAAGCUCUGGAUCUAGUGGGUUACCUAA | 0.0522 ± 0.0082
19 | CUUAACCUGUGGAUCUACUGGGUUACCUAA | 0.37 ± 0.022
20 | CUUAUCCUCUCGAUCUACUGGGUUUCCUAA | 0.32 ± 0.042
21 | CUUAACCUCUGGAUCUAGUGGGUUACCAAA | 0.0597 ± 0.0073
22 | CUUAAGGAGUGAUCUACUGGGUUACCUAA | 0.00412 ± 0.0023
23 | GAAUUCCUCUGGAUCUACUGGGAUAGCUAA | 0.195 ± 0.038
24 | CUUAAGGUCUGGAUGUACUGGGUUAGCUAA | 0.0622 ± 0.034
25 | CUUAAGGUCUGGAUCUACUGGGUUAUCCUAA | 0.305 ± 0.034

Row | Sequence | pre-steady-state target cleavage rate
26 | CUUAAGCUCACCAUCUACUGGGUUACCUAA | 0.0189 ± 0.0049
27 | CAUUUCCUCUGGAUCUACUGGGUUACCUUA | 0.441 ± 0.066
28 | CUUAAGGAGUGGAUCUACUGGCUUACCUAA | 0.0208 ± 0.012
29 | CUUAUCCAUCUGGAUCUACUGGGUUACCUAA | 0.508 ± 0.051
30 | CUUAAGGUCUGGAUCUACUGGGUUACGUAA | 0.462 ± 0.041
31 | CUUAAGGAGAGGAUCUACUGGGUUACCUUAA | 0.00691 ± 0.0049
32 | CUUAUCCUCUGGAUCUAGUGGGUUAGCUAA | 0.0415 ± 0.011
33 | CUUAUCCUCUGGAACUAGUGGGUUACCUAA | 0.167 ± 0.021
34 | CUUAAGGACCUGGAUCUACUGGGUUACCUAA | 0.0827 ± 0.017
35 | CUUAAGGACUGGAUCUACUGGGUUACCAA | 0.019 ± 0.018
36 | CUAUUCUUCUGGAUCUACUGGGUUACCUAA | 0.434 ± 0.035
37 | CUUAUCCUCUGGUACUACUGGGUUACCUAA | 0.364 ± 0.044
38 | CUUAAGGUCUGGAUCUAGUGGGUUACCAAA | 0.0464 ± 0.011
39 | CUUAAGGAGAGCAUCUACUGGGUUACGUAA | 0.00371 ± 0.0022
40 | GAAUACCUCUGGAUCUUCUGGGUUACCUAA | 0.273 ± 0.048
41 | CUUUUCCUCUGGAUCUAGUCGGUUACCUAA | 0.00647 ± 0.0032
42 | CUUAUCCUUCUGGAUCUACUGGGUUACCUAA | 0.499 ± 0.052
43 | CUUUUCCUCUGGAAGAACUGGGUUACCUAA | 0.121 ± 0.031
44 | CAUUUCCUCUGGAUGUACUGGGUUACCUAA | 0.514 ± 0.056
45 | CUUUACCUCUGGAUCUACUGGGUUACCUUA | 0.167 ± 0.025
46 | GAAUUCCUCUCGAACUACUGGGUUACCUAA | 0.47 ± 0.046
47 | CUUAAGCUCUGGAUCAACUGCGUUACCUAA | 0.206 ± 0.027
48 | GAAUACCUCUGGAUCUACAGGGUUACCUAA | 0.18 ± 0.026
49 | CUUAAGCUCGUGGAUCUACUGGGUUACCUAA | 0.0949 ± 0.019
50 | CUAUUCCUCUGGAUCUACAGGCUUACCUAA | 0.0271 ± 0.008

Row | Sequence | pre-steady-state target cleavage rate
51 | CUUAUCCUCUGGAUCUUCAGGGUUACCUAA | 0.129 ± 0.017
52 | CUUAUCCUCUGGAUCUAGUGGGUUACCUAA | 0.196 ± 0.023
53 | CUAUACCUCUGGAUCUACUGGGUUACCUAA | 0.544 ± 0.084
54 | CUUAAGCUCUGGAUCUACUCGGUUACGUAA | 0.0999 ± 0.022
55 | CAAUUCCUCUGGUUCUACUGGGUUAGCUAA | 0.371 ± 0.041
56 | CUUAACCAGUGGAUCUACUGGGUUACCUAA | 0.352 ± 0.032
57 | CUUUUCCUCUGGAACUACUGCGUUACCUAA | 0.369 ± 0.042
58 | CAAUUCCUCUGGACUACUGGGUUACCUAA | 0.296 ± 0.043
59 | GAAUACCUCUGGAUCUACUGGCUUACCUAA | 0.107 ± 0.014
60 | CUUUUCCUCUGAUCUACUGGGUUACCUAA | 0.304 ± 0.036
61 | CUUAAGGAGACCUAGAUGACGUGUUACCUAA | < 0.0001
62 | CUUAAGGUCUGGAUCUUCUGCGUUACCUAA | 0.104 ± 0.032
63 | CUUAAGGACUCGAUCUACAGGGUUACCUAA | 0.00845 ± 0.0026
64 | CAAUUCCUCUGGAUCUACUGGGUUAGCAAA | 0.151 ± 0.054
65 | CUUAAGGAGUGGAUCUACUGGGUUUCCUAA | 0.0187 ± 0.0043
66 | CUAUUCCUCUGGAUGCUACUGGGUUACCUAA | 0.335 ± 0.033
67 | CAAUUCCUCUCGAUCUACUGGGUUACCUUA | 0.69 ± 0.056
68 | CUAUUCCUCUGGAUGUACUGGGUUACGUAA | 0.533 ± 0.042
69 | CUUAAGCUCAGGAUCUACUGGCUUACCUAA | 0.056 ± 0.015
70 | CUUAAGCACUGGAUCUACUGGCUUACCUAA | 0.0537 ± 0.013
71 | CAAUUCCUCUGGAUCUACUGGGUAACCAAA | 0.177 ± 0.056
72 | CUUUACCUCUGGAACUACUGGGUUACCUAA | 0.41 ± 0.033
73 | GUAUUCCUCUGGAUCUACUGGGUUACCAAA | 0.178 ± 0.047
